Experimental data as given in article PMC5836133.
Some of the results follow. At the low end of the ranking the order means little.

system: T1, GST-NbGlk1(82-244); experiment: protein-binding microarray; conditions: NbGlk1 is a Golden2-like transcription factor of Nicotiana benthamiana; high values mean tight binding; most listed sequences are background and not binding sites; double strand, one strand shown;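 further: rank-based score ranging −0.5 to +0.5 with E above 0.45 taken as significant binding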
T1 sequence: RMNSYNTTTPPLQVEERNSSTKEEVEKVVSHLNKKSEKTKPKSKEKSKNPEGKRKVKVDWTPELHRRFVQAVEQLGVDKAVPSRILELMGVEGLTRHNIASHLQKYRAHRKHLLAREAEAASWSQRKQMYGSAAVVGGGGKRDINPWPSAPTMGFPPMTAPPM

Row | Sequence | binding signal [E-score]
1 | AGAACATC | -0.0154
2 | AGTTGGGC | -0.265
3 | AATTGCGT | 0.233
4 | CAATTCTA | -0.0249
5 | AAAAGTCT | -0.0634
6 | CACTTCAA | -0.048
7 | AATTTCTG | 0.14
8 | AAATGCCC | -0.0279
9 | AAACTATG | 0.0224
10 | ATCGTATA | 0.237
11 | ACCCGACC | -0.283
12 | ATCCGAAC | 0.239
13 | CAACCATC | -0.143
14 | ACCGAGGC | -0.126
15 | AGCAAAAT | 0.241
16 | ATACGCGC | 0.223
17 | ATTTCCCG | 0.309
18 | CACGTGGC | -0.121
19 | AGACATCC | -0.105
20 | ACAGCCTC | -0.199
21 | ACACCAAC | -0.159
22 | ATACACCA | 0.123

Row | Sequence | binding signal [E-score]
23 | AAAACTTA | 0.223
24 | ATAAAGGC | -0.199
25 | ACACGGAT | 0.188
26 | ACGGCCTG | -0.262
27 | AACAGACT | -0.267
28 | ATTATATC | 0.273
29 | AACTTCGT | 0.0168
30 | AGTTCCCA | -0.172
31 | CAGCCGAC | -0.292
32 | AGGTAGAT | 0.237
33 | ATCGCCAC | 0.22
34 | ACAGGACC | -0.191
35 | AATATCAT | 0.282
36 | ACTCCTTA | -0.0183
37 | ATATCTGA | 0.399
38 | ACCCAGGT | -0.301
39 | ATACGACG | 0.132
40 | AGGAATTA | 0.177
41 | ATCTACTG | 0.189
42 | ACCTCAGG | -0.125
43 | ATCGACCA | 0.0604
44 | ACTGACAC | -0.149

Row | Sequence | binding signal [E-score]
45 | AGGCGACT | -0.205
46 | AGTCCAAT | -0.0711
47 | AGATCCGC | 0.34
48 | ATTATAAA | 0.181
49 | ACTGCTAC | -0.116
50 | CAGCATCG | 0.0174
51 | ATTAACCG | -0.163
52 | CACTCCCG | -0.152
53 | CAAGTTCG | -0.0617
54 | ACCGATGG | -0.226
55 | AATCAAAA | 0.296
56 | AAGCTCGG | -0.0526
57 | ATCGTGAG | 0.177
58 | ATATATCC | 0.262
59 | CAATATAG | 0.184
60 | ACAGTCTG | -0.158
61 | CACGTAGA | 0.0632
62 | AGTGGGCG | -0.197
63 | AATTTGAC | 0.108
64 | AGCACGAA | 0.0207
65 | AGCCGACC | -0.231
66 | AGACACTC | -0.174

Row | Sequence | binding signal [E-score]
67 | ATAGAGCG | -0.129
68 | AGGATCCC | 0.322
69 | ATTATTAA | 0.205
70 | ACCATCCT | -0.178
71 | ATATGCCA | 0.156
72 | ATGAAAAG | 0.125
73 | AAAATGTT | 0.0874
74 | ATCTTGAA | 0.286
75 | ACTCAATA | 0.112
76 | ACGTTTAA | -0.0543
77 | ACTAGTGA | -0.0419
78 | AACCGTAA | 0.109
79 | CACTGACA | -0.135
80 | ATTCGAGA | 0.204
81 | AGATCCAG | 0.261
82 | CAGCCGCG | -0.139
83 | ACGCTTAA | -0.132
84 | AAGGGTCC | -0.262
85 | AGCAGCGG | -0.262
86 | ATAAACAG | -0.048
87 | ATCGAATC | 0.354
88 | AGTAAAGA | 0.0222

Row | Sequence | binding signal [E-score]
89 | AACCCAGA | 0.129
90 | AACATACC | -0.0214
91 | ACGAAATA | 0.246
92 | AAGTTTTG | -0.00715
93 | ATAGAAGC | -0.129
94 | AGAACTCC | -0.256
95 | AGGAACCC | -0.213
96 | AGCTCCTA | -0.154
97 | ACTGTCAC | -0.162
98 | ATTCGATC | 0.207
99 | ATTGTAGA | 0.15
100 | AGACTATA | 0.0501
101 | AAACCACG | -0.0506
102 | AGTATTGG | -0.119
103 | ATTCGTTC | 0.137
104 | CACGTAAG | 0.104
105 | ATTCTACG | 0.188
106 | ACATGGGT | -0.171
107 | ACAGACGT | -0.0765
108 | AACGCTAA | 0.0407
109 | ACAAGCCA | -0.229
110 | AATCCTAC | 0.343
